This note sets out measurements from ChEMBL document CHEMBL5606460, “ASAP - DENV-2 NS2B-NS3 protease fluorescence single point” (2024).

About 110 (5.5%) of roughly 2,000 compounds showed an effect of 50% or more. This is one part of the list.

In this experiment the target is Genome polyprotein (dengue virus type 2) (UniProt P29990).
The mark [1] stands for this setting: Thailand/16681/1984, Concentration 25.0 uM, Number of replicates 1.0.

With `O=c1c(N2CC[C@H](CO)C2)nccn1C1CC1`, the inhibition by setting is: (Thailand/16681/1984, Concentration 49.5 uM, Number of replicates 2.0, Standard deviation 2.4482264734756005 %) 8.46%; (Thailand/16681/1984, Concentration 99.01 uM, Number of replicates 2.0, Standard deviation 2.8900822321462307 %) 18%; (Thailand/16681/1984, Concentration 198.0 uM, Number of replicates 2.0, Standard deviation 2.1394185374850085 %) 33.2%.
`CS(=O)(=O)C1CCN(C(=O)C2CCN(c3ccc(C=O)cc3)CC2)CC1`: under setting [1], the inhibition amounted to 13.4%.
As for `NCc1cccc(NC(=O)CCN2C(=O)OCc3ccccc32)c1`, the inhibition reads like this: (Thailand/16681/1984, Concentration 49.5 uM, Number of replicates 2.0, Standard deviation 2.5679236918339337 %) -3.54%; (Thailand/16681/1984, Concentration 99.01 uM, Number of replicates 2.0, Standard deviation 2.2564444885847212 %) -3.95%; (Thailand/16681/1984, Concentration 198.0 uM, Number of replicates 2.0, Standard deviation 3.0791944670650357 %) -5.2%.
As for `O=Cc1ccc(N2CCC(C(=O)Nc3ccc(Br)nc3)CC2)cc1`, the inhibition under setting [1] turned out to be 14%.
Take `O=C(NCc1cocn1)c1cc(Cl)ccc1NS(=O)(=O)c1ccc(Oc2ccccc2Cl)cc1`: the inhibition reads like this: (Thailand/16681/1984, Concentration 49.5 uM, Number of replicates 2.0, Standard deviation 0.2927162692291327 %) 78.5%; (Thailand/16681/1984, Concentration 99.01 uM, Number of replicates 2.0, Standard deviation 0.11144031356026086 %) 70.2%; (Thailand/16681/1984, Concentration 198.0 uM, Number of replicates 2.0, Standard deviation 0.4940824474713894 %) 60.8%.
Regarding `Cc1nn(C)nc1-c1nn(C)cc1NC(=O)c1ccccc1C(F)(F)F`, the inhibition (Thailand/16681/1984, Concentration 49.5 uM, Number of replicates 2.0, Standard deviation 2.7709187614774393 %) is -3.06%; the inhibition (Thailand/16681/1984, Concentration 99.01 uM, Number of replicates 2.0, Standard deviation 2.812620033505876 %) was -2.31%; the inhibition (Thailand/16681/1984, Concentration 198.0 uM, Number of replicates 2.0, Standard deviation 2.009504923047635 %) is -2.5%.
As to `NCc1cccc(NC(=O)[C@H]2COCCN2C(=O)OCc2ccccc2)c1`, the inhibition (Thailand/16681/1984, Concentration 49.5 uM, Number of replicates 2.0, Standard deviation 2.1985984026188525 %) was -2.35%; the inhibition (Thailand/16681/1984, Concentration 99.01 uM, Number of replicates 2.0, Standard deviation 3.141935382649838 %) is -2.12%; the inhibition (Thailand/16681/1984, Concentration 198.0 uM, Number of replicates 2.0, Standard deviation 3.1268064131286404 %) is -1.63%.
For `O=Cc1ccc(N2CCC(C(=O)NCCC(=O)NC3CCCCC3)CC2)cc1`, the inhibition under setting [1] came to 14.2%.
On the same count and under the same terms, to `O=Cc1ccc(N2CCC(C(=O)Nc3cccc(Br)c3)CC2)cc1` belongs 13%.
As to `CC(C)(CO)NC(=O)c1cc(Cl)cc(NC(=O)c2ccccc2Oc2cccnc2)c1`, the inhibition reads like this: (Thailand/16681/1984, Concentration 49.5 uM, Number of replicates 2.0, Standard deviation 1.8446626979627367 %) -2.61%; (Thailand/16681/1984, Concentration 99.01 uM, Number of replicates 2.0, Standard deviation 2.0703393680868953 %) -0.983%; (Thailand/16681/1984, Concentration 198.0 uM, Number of replicates 2.0, Standard deviation 1.68374527170487 %) -0.13%.
Turning to `Cc1cc(-c2ccccc2C(=O)Nc2cnn(C)c2)cnc1F`, the inhibition runs as follows: (Thailand/16681/1984, Concentration 49.5 uM, Number of replicates 2.0, Standard deviation 1.8621671270862812 %) -3.16%; (Thailand/16681/1984, Concentration 99.01 uM, Number of replicates 2.0, Standard deviation 1.7076305651055699 %) -2.86%; (Thailand/16681/1984, Concentration 198.0 uM, Number of replicates 2.0, Standard deviation 1.0479519697231194 %) -2.2%.
Take `Cc1cc(CO)c2cccc(NC(=O)c3ccno3)c2n1`: the inhibition is, setting by setting: (Thailand/16681/1984, Concentration 49.95 uM, Number of replicates 2.0, Standard deviation 1.5532125200628712 %) 10.1%; (Thailand/16681/1984, Concentration 99.9 uM, Number of replicates 2.0, Standard deviation 1.6079353138198398 %) 17.5%.
In the case of `O=Cc1ccc(N2CCC(C(=O)Nc3nc(Cl)nc4nc[nH]c34)CC2)cc1`, the inhibition under setting [1] stood at 13%.
Turning to `CC(=O)N[C@@H](CCCN)C(=O)N[C@@H](Cc1cccc2c(CO)cc(C)nc12)C(=O)O`, the inhibition stood at 3.09% (Thailand/16681/1984, Concentration 49.95 uM, Number of replicates 2.0, Standard deviation 0.5992602451051136 %) and 10.4% (Thailand/16681/1984, Concentration 99.9 uM, Number of replicates 2.0, Standard deviation 0.2553775331963615 %).
`Cc1cc(CO)c2cccc(Cc3cccc(C(=O)N[C@H](Cc4c[nH]cn4)C(=O)O)c3)c2n1`: the inhibition was determined as 0.28% (Thailand/16681/1984, Concentration 49.95 uM, Number of replicates 2.0, Standard deviation 1.5537254050624003 %) and 8.77% (Thailand/16681/1984, Concentration 99.9 uM, Number of replicates 2.0, Standard deviation 1.0362959215926437 %).
As to `O=Cc1ccc(N2CCC(C(=O)NCCc3nc(-c4ccc(Cl)cc4)no3)CC2)cc1`, under setting [1], the inhibition was found to be 2.16%.
In the case of `CNC(=O)c1cc(Cl)ccc1NS(=O)(=O)c1ccc(NS(C)(=O)=O)cc1`, the inhibition (Thailand/16681/1984, Concentration 49.5 uM, Number of replicates 2.0, Standard deviation 0.6295365180266114 %) is 1.5%; the inhibition (Thailand/16681/1984, Concentration 99.01 uM, Number of replicates 2.0, Standard deviation 0.4200098669756753 %) came out at 3.13%; the inhibition (Thailand/16681/1984, Concentration 198.0 uM, Number of replicates 2.0, Standard deviation 0.4807630318175827 %) was 6.02%.
`CC(C)Nc1nc2ccc(C(=O)Nc3cncc(F)c3)cc2[nH]1`: the inhibition reads like this: (Thailand/16681/1984, Concentration 49.5 uM, Number of replicates 2.0, Standard deviation 1.9887225227811554 %) -0.703%; (Thailand/16681/1984, Concentration 99.01 uM, Number of replicates 2.0, Standard deviation 1.2158747079656789 %) -0.15%; (Thailand/16681/1984, Concentration 198.0 uM, Number of replicates 2.0, Standard deviation 2.839943587782754 %) 1.93%.
On to `Cc1nc(C)c(CN2CCC(c3c[nH]c4cccnc34)CC2)s1`, for which the inhibition was -1.17% (Thailand/16681/1984, Concentration 49.5 uM, Number of replicates 2.0, Standard deviation 0.3047269830898277 %); -1.83% (Thailand/16681/1984, Concentration 99.01 uM, Number of replicates 2.0, Standard deviation 0.9100574280517228 %); -2.99% (Thailand/16681/1984, Concentration 198.0 uM, Number of replicates 2.0, Standard deviation 0.6230614133961857 %).
As to `Nc1ccc(C(=O)Nc2nc3ccccc3s2)nc1`, the inhibition (Thailand/16681/1984, Concentration 49.5 uM, Number of replicates 2.0, Standard deviation 0.7781913187102333 %) is -1.85%; the inhibition (Thailand/16681/1984, Concentration 99.01 uM, Number of replicates 2.0, Standard deviation 0.46638176846239243 %) was determined as 1.53%; the inhibition (Thailand/16681/1984, Concentration 198.0 uM, Number of replicates 2.0, Standard deviation 0.8805292616912934 %) was 22%.

As a reminder, the inhibition is the drop in the measured response relative to a control, in per cent.
